# The list shows a part of the results.
# T1: UNK ZnF1-3 (human, UniProt Q9C0B0 31-174)
# T1 sequence: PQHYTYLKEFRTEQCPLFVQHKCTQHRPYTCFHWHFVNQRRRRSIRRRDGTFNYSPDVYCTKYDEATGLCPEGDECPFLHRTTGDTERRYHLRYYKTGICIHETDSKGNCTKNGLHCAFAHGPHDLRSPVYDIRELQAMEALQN
# B1: chr12:493273:493274:-_ENSG00000073614_ENST00000399788|hu_mus|hu_hu_hu_mus_False|58_88 (ssRNA)
# RNA: GGGAGUUCUACAGUCCGACGAUCUUUUCUCUCCACCACAGGGAUCUUCAGAGUAGAUCCUUGAAGUUCCCAAAAUUUUGCUAGUUGAUCCAAGAAGUCCAAUCUUACUCUAGUCAUUGCCUCAAGUUCAUUCAGGCGCUGGACCAACAGAGGAUUGAGCAUCA
# B2: chr16:94664741:94664742:+_ENSMUSG00000040785_ENSMUST00000117648|mus_hu|mus_mus_mus_hu_False|38_88 (ssRNA)
# RNA: GGGAGUUCUACAGUCCGACGAUCUGGUACUGAUCUUGGUAGCUGAUACUCAGAAGAAAGGCUGGCCAAGGGUGUAUAUAUGCUGGUGUACUGGGGCAGGCUAGGUAACACGUUUAUGUAUGCUGGCGGUGUCUGGGUGAUAUCCAACAGAGGAUUGAGCAUCA
# B3: chr1:39494564:39494565:+_ENSG00000168653_ENST00000372967|hu_hu|hu_hu_hu_mus_True|28_48 (ssRNA)
# RNA: GGGAGUUCUACAGUCCGACGAUCAUGCAUUCGCCUCAUCGUUUUGUACCGAAGCAAGCACUCUUCGAAGUCAUCGAACUCUAUCUUGCACUCUUUCUUCGCCCGGGUAUAACCGAUCCCGUGUGCACACUCUAUCCACUCUUUCAACAGAGGAUUGAGCAUCA
# B4: 135593560_135593680_1890_CDS_ENSG00000102241_ENST00000218364|human|control|control (ssRNA)
# RNA: GGGAGUUCUACAGUCCGACGAUCUAACUCUUUGUCAAGAACAUUUUCAUGAAGCUCCUUUUCAGAACCUUCCUCGUCCAAAUCUUUCUCGAGACCAUUUUCUUCAAAUUCUCUUUCGGAGCCAUCUUCAGACUGUUUUUCAGACAACAGAGGAUUGAGCAUCA
# B5: chr14:90871081:90871082:+_ENSG00000198668_ENST00000553542|hu_hu|FALSE|FALSE (ssRNA)
# RNA: GGGAGUUCUACAGUCCGACGAUCUCUUUUUUUUGCAAGAGGUAAGUAAAAGAUUCAAUUUGAUUCUUCUAGAGGGGGGAAAAAGGAGUUGAAAGUAGGUCUUCAUUUUGCAGUCAUCAUCUGUACGAAUUCUUCAUAGUUGACCAACAGAGGAUUGAGCAUCA
# B6: 70339416_70339877_200_CDS_ENSMUSG00000018286_ENSMUST00000018430|mouse|control|control (ssRNA)
# RNA: GGGAGUUCUACAGUCCGACGAUCAGCGGCUGAGCCUGAGCGGCAGCAGAAGAUGUGAUCGUGGAUAGGGGUCAGCUUGUCAGUCACUCGAUUGGCGAUGUAGGACCCAGUGGUUGUCCUGGAGUCCGCUCCUAGAACCACGCCCAACAGAGGAUUGAGCAUCA
# B7: chr5:145543945:145543946:-_ENSG00000133706_ENST00000545646|hu_hu|hu_hu_hu_mus_True|78_78 (ssRNA)
# RNA: GGGAGUUCUACAGUCCGACGAUCCUGAACGGCCAGUGGUGGGAAAUAAUCAAGCCAAUGUUCUGCUUCAGAAAACUUCACUAUGUCGUCAUCAGAGAGCCCAAGGGAUUUCAUAAUGUCCCACUGGUACUUAGAAGAUCCUGCCAACAGAGGAUUGAGCAUCA
# B8: chr14:89307221:89307222:+_ENSG00000165533_ENST00000346301|hu_mus|hu_hu_hu_mus_False|18_88 (ssRNA)
# RNA: GGGAGUUCUACAGUCCGACGAUCUCCUGUUUGGUUAGUGCCAGGGAGUUUCAAAGAUGUGCCAGGGCGUGGGACCUGAGCAAUAGCAUUUUCAUCCAGGAUCAUUUCAGCAAUUCCUUCCUGAUCUACAUCAAUUUCAUCUAUCAACAGAGGAUUGAGCAUCA
# B9: chr1:66829163:66829164:+_ENSG00000184588_ENST00000423207|hu_mus|motif|central (ssRNA)
# RNA: GGGAGUUCUACAGUCCGACGAUCCACGUCAGCAGCAUGCAGGCUGUUGUGAUAUGCCACAUCAGAAUGGUAAUGGUCUUCGGAAGUCAUCAUGUAGGUUACAAAGGUGUCAGAUGAGAUUUUAAACGUCUUCAGAAGGUCUCUCAACAGAGGAUUGAGCAUCA
# B10: 110435137_110447804_97_CDS_ENSMUSG00000044791_ENSMUST00000153838|mouse|control|control (ssRNA)
# RNA: GGGAGUUCUACAGUCCGACGAUCUUCAGGGGUCGGGUGCUCGGGAUCGUAGAAAUCCCCCAUCUUCGGUGGCGGCUGCUGCGACGGCAGCGGCUUCAUGAGGAGCGGCUGGAGGCGGCGACGCUAGCCCCCUCCCCGCGGCAGCAACAGAGGAUUGAGCAUCA
# B11: chr3:65185704:65185705:-_ENSMUSG00000027828_ENSMUST00000029414|mus_mus|FALSE|FALSE (ssRNA)
# RNA: GGGAGUUCUACAGUCCGACGAUCCUCCUUGCCUUUUAAUAAAAUGCCCUGGUACUCUGAGUUUCCCUUUCAAUUCAUUUAAUUUCAGCAAUCUGUCAAAAACAGCCAAUAAACAAACACUGAAUUACAUUCUACUGCAUUUUUCAACAGAGGAUUGAGCAUCA
# B12: chr1:94914716:94914717:-_ENSMUSG00000014602_ENSMUST00000171796|mus_hu|FALSE|FALSE (ssRNA)
# RNA: GGGAGUUCUACAGUCCGACGAUCUAAAUAGAACAAGUCUUAUAGUUAAUUUCCGAGUUGACUGUUUCAAUGUCACUAACUAACGUAUAUUAAUUAUAAGUCUGUCUAUGCUUAAAAAAAUAUUAGAACGGCAGCAAGAACCCCCAACAGAGGAUUGAGCAUCA
# B13: chr6:40426449:40426450:+_ENSMUSG00000029911_ENSMUST00000121360|perfect_dup|FALSE|FALSE (ssRNA)
# RNA: GGGAGUUCUACAGUCCGACGAUCAACGUCACCCAUUUGGUAUACUUCACUAUCCCCUGAUCGCCACAUCUCAUUUGUUGCUAGAGAAAAUAUUGUGACUGGGUUUUUUCCUUCCACCUGUCUCAUGACAGGGUCCUGACCUACCAACAGAGGAUUGAGCAUCA
# B14: chrX:71549400:71549401:+_ENSMUSG00000019087_ENSMUST00000019231|mus_hu|mus_mus_mus_hu_False|38_98 (ssRNA)
# RNA: GGGAGUUCUACAGUCCGACGAUCGCAGUAGGAAGAGCAAACCUUUCCAGUCCAGUGCGCUGCAGGGUGGGAAAGCAACAACACGGACACCGUCCCACCUCAAUUCCCCCCACUGGCACAGGGUCACACAAUCUGGGUCAAAGACAACAGAGGAUUGAGCAUCA
# B15: 3496540_3496660_1799_CDS_ENSMUSG00000037486_ENSMUST00000111215|mouse|control|control (ssRNA)
# RNA: GGGAGUUCUACAGUCCGACGAUCAGAUUUGCUUGGGGAUAUAGCUAACGCUUCUUGGUUCUCACUUUUGUUAUUACGAGAAGUUGUGGUUACAUGAUUUUCUUUCUCAGAUUCUUGUUCAGCACAGGCAACAGGCUUCUGCUCCAACAGAGGAUUGAGCAUCA
# B16: chr2:216981417:216981418:+_ENSG00000079246_ENST00000392132|hu_hu|hu_hu_hu_mus_True|48_88 (ssRNA)
# RNA: GGGAGUUCUACAGUCCGACGAUCCUGAUACUGGUCCUUGCCAGCAAGGGGAUUGUCAGUGCCAUCUGUGCCAUAGAGGACUAACGCAAUCUCAUCCUUGCUCUCCGAAAAUACCUGUCGUUGGACAAACAUAGUCAUCACUUUCAACAGAGGAUUGAGCAUCA
# B17: chr4:128759998:128759999:+_ENSMUSG00000028793_ENSMUST00000168461|mus_mus|FALSE|FALSE (ssRNA)
# RNA: GGGAGUUCUACAGUCCGACGAUCUGCACCAAGACUGGCUGUGUCUUUGGGGAAAAUUUCCUUUUGGACAUCAGCUUGAACUUCUAACCGGCUGUACUUUCCCUUGCCGCUGGAGAGAAUACCACCACUCAGUGUGCCCCCUGACAACAGAGGAUUGAGCAUCA
# B18: chrX:71549762:71549763:+_ENSMUSG00000019087_ENSMUST00000019231|mus_mus|mus_mus_mus_hu_False|8_58 (ssRNA)
# RNA: GGGAGUUCUACAGUCCGACGAUCAAACCCGUGUACUUCUUAUUGUUAGCACAACAUCACCAGAAAACGAUAACGACAGCUAAGCUGGACAGACAGUUAAGUAGUACUUCCACACUCCCAAACUCAGAGGAACCUCAAACCUUACAACAGAGGAUUGAGCAUCA
# B19: chr11:51926749:51926750:+_ENSMUSG00000020349_ENSMUST00000020608|perfect_dup|motif|central (ssRNA)
# RNA: GGGAGUUCUACAGUCCGACGAUCGUCAACAUAAUCUCCCAUAAACAAGUAAUUUGUAUCUGGUGAUUUGCCACCAAUUCGGAACAGUUCCAUGAGAUCAUGAAAUUGCCCAUGCACAUCUCCACAGACAGUAACUGGACAUCGCAACAGAGGAUUGAGCAUCA
# B20: 129323141_129323261_3732_3pUTR_ENSMUSG00000003731_ENSMUST00000102590|mouse|control|control (ssRNA)
# RNA: GGGAGUUCUACAGUCCGACGAUCUAACUGUCACUUGAGAGGUUCAGGGGUCUACUCUUCAGAUAAGGACGAUGAUGGCUUCAUAGAGGACUUUUCUUUGAACUAGGAGCAGUUUCAGUCAGGUUAAAAACAAAAGGGCCAGCACAACAGAGGAUUGAGCAUCA
# B21: chr14:78183846:78183847:+_ENSG00000119705_ENST00000557342|hu_hu|hu_hu_hu_mus_False|88_98 (ssRNA)
# RNA: GGGAGUUCUACAGUCCGACGAUCUCUCAGAAAUCUUUCUUUCUUUUCAUCAUCAGAUCCGUGCAAAGCCUUUGCUCUUUGAGCUUGAACGUGGAUCUAUGGGAGGGAAAGCACUGUCAGAAAAGGUAAUUUUUUUUUUAAAGACAACAGAGGAUUGAGCAUCA
# B22: chr8:104447970:104447971:+_ENSG00000164934_ENST00000297579|hu_hu|hu_hu_hu_mus_False|48_58 (ssRNA)
# RNA: GGGAGUUCUACAGUCCGACGAUCAUACACUUCCCUGCUUCGGCUCUUGUCCACAGGAAAGAUUCUAAUAGACUUAUCGAAACUAGCAGACACAAACUCCUUCCCAGUGGGAGAGUAGUCCACAUCAAGUACUGCAGACACGUGCAACAGAGGAUUGAGCAUCA
# Target: T1, UNK ZnF1-3
# Experiment: nsRBNS (natural sequence RNA bind-n-seq); RBNS binding buffer (assumed for nsRBNS): 25 mM Tris pH 7.5, 150 mM KCl, 3 mM MgCl2, 0.01% Triton X-100, 500 ug/ml BSA, 20 U/ml SUPERase-In, 4 C; UNK is unkempt and MSI1 is Musashi-1; names of the RNAs are library labels; protein concentration not given here; high values mean tight binding
row,Binder,binding signal
1,B1,0.931 enrichment R
2,B2,1.25 enrichment R
3,B3,0.68 enrichment R
4,B4,0.476 enrichment R
5,B5,1.23 enrichment R
6,B6,1.03 enrichment R
7,B7,1.28 enrichment R
8,B8,0.834 enrichment R
9,B9,0.855 enrichment R
10,B10,0.923 enrichment R
11,B11,1.18 enrichment R
12,B12,1.44 enrichment R
13,B13,1.13 enrichment R
14,B14,1.4 enrichment R
15,B15,0.419 enrichment R
16,B16,1 enrichment R
17,B17,1.08 enrichment R
18,B18,1.21 enrichment R
19,B19,1.08 enrichment R
20,B20,1.69 enrichment R
21,B21,0.992 enrichment R
22,B22,0.779 enrichment R

# Reference: paper PMC12136788
